The list shows a part of the results.
Experiments:
Test in all cases: glycan array binding signal (z-score within array); higher = stronger binding
Details in all cases: glycan notation: IUPAC condensed, linker removed
Gal6S(b1-4)GlcNAc = target: Gal6S(b1-4)GlcNAc
Outline: (§1)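 Glycan array data came from 3228 arrays in the Consortium for Functional Glycomics database, and only arrays with an available protein sequence were kept. Glycan names were put into IUPAC-condensed notation, and columns mapping to the same glycan were averaged. The binding signal is a within-array Z-score, averaged across arrays of one protein sequence run at different concentrations or buffers and across linkers. A negative Z-score can be read as non-binding.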

Gal6S(b1-4)GlcNAc6S = target: Gal6S(b1-4)GlcNAc6S
Outline: as §1

GalNAc(a1-3)Gal = target: GalNAc(a1-3)Gal
Outline: as §1

GalNAc(a1-3)GalNAc = target: GalNAc(a1-3)GalNAc
Outline: as §1

[1] = target: GalNAc(a1-3)GalNAc(a1-3)Gal(a1-4)Gal(b1-4)GlcNAc
Outline: as §1

[2] = target: GalNAc(a1-3)GalNAc(b1-3)Gal(a1-4)Gal(b1-4)Glc
Outline: as §1

GalNAc(b1-3)Gal = target: GalNAc(b1-3)Gal
Outline: as §1

[3] = target: GalNAc(b1-3)Gal(a1-4)Gal(b1-4)GlcNAc
Outline: as §1

[4] = target: GalNAc(b1-3)Gal(a1-4)Gal(b1-4)GlcNAc(b1-3)Gal(b1-4)Glc
Outline: as §1

[5] = target: GalNAc(b1-3)Gal(a1-6)Gal(b1-4)Glc
Outline: as §1

GalNAc(b1-3)GalNAc = target: GalNAc(b1-3)GalNAc
Outline: as §1

GalNAc(b1-3)GlcNAc = target: GalNAc(b1-3)GlcNAc
Outline: as §1

GalNAc(b1-4)Gal(b1-4)Glc = target: GalNAc(b1-4)Gal(b1-4)Glc
Outline: as §1

GalNAc(b1-4)GlcNAc = target: GalNAc(b1-4)GlcNAc
Outline: as §1

[6] = target: GalNAc(b1-4)GlcNAc(b1-2)Man
Outline: as §1

[7] = target: GalNAc(b1-4)GlcNAc(b1-2)Man(a1-3)[GalNAc(b1-4)GlcNAc(b1-2)Man(a1-6)]Man(b1-4)GlcNAc(b1-4)GlcNAc
Outline: as §1

[8] = target: GalNAc(b1-4)GlcNAc(b1-3)GalNAc(b1-4)GlcNAc
Outline: as §1

GalNAc(b1-4)GlcNAc6S = target: GalNAc(b1-4)GlcNAc6S
Outline: as §1

GalNAc(b1-6)GalNAc = target: GalNAc(b1-6)GalNAc
Outline: as §1

GalNAc3S(b1-4)GlcNAc = target: GalNAc3S(b1-4)GlcNAc
Outline: as §1

GalNAc3S(b1-4)GlcNAc3S = target: GalNAc3S(b1-4)GlcNAc3S
Outline: as §1

[9] = target: GalNAc3S(b1-4)[Fuc(a1-3)]GlcNAc
Outline: as §1

GalNAc4S6S(b1-4)GlcNAc = target: GalNAc4S6S(b1-4)GlcNAc
Outline: as §1

GalNAc6S(b1-4)GlcNAc = target: GalNAc6S(b1-4)GlcNAc
Outline: as §1

Glc(a1-4)Glc = target: Glc(a1-4)Glc
Outline: as §1

[10] = target: Glc(a1-4)Glc(a1-4)Glc(a1-4)Glc
Outline: as §1

Glc(a1-6)Glc(a1-6)Glc = target: Glc(a1-6)Glc(a1-6)Glc
Outline: as §1

[11] = target: Glc(a1-6)Glc(a1-6)Glc(a1-6)Glc
Outline: as §1

Glc(b1-4)Glc = target: Glc(b1-4)Glc
Outline: as §1

Glc(b1-6)Glc = target: Glc(b1-6)Glc
Outline: as §1

GlcA(b1-3)Gal = target: GlcA(b1-3)Gal
Outline: as §1

GlcA(b1-3)GlcNAc = target: GlcA(b1-3)GlcNAc
Outline: as §1

GlcA(b1-6)Gal = target: GlcA(b1-6)Gal
Outline: as §1

[12] = target: GlcA3S(b1-3)Gal(b1-4)GlcNAc(b1-2)Man
Outline: as §1

[13] = target: GlcA3S(b1-3)Gal(b1-4)GlcNAc(b1-3)Gal(b1-4)Glc
Outline: as §1

[14] = target: GlcNAc(a1-3)Gal(b1-4)GlcNAc
Outline: as §1

[15] = target: GlcNAc(a1-4)Gal(b1-3)GlcNAc
Outline: as §1

[16] = target: GlcNAc(a1-4)Gal(b1-4)GalNAc
Outline: as §1

[17] = target: GlcNAc(a1-4)Gal(b1-4)GlcNAc
Outline: as §1

[18] = target: GlcNAc(a1-4)Gal(b1-4)GlcNAc(b1-3)Gal(b1-4)Glc
Outline: as §1

[19] = target: GlcNAc(a1-4)Gal(b1-4)GlcNAc(b1-3)Gal(b1-4)GlcNAc
Outline: as §1

[20] = target: GlcNAc(a1-4)Gal(b1-4)GlcNAc(b1-3)Gal(b1-4)GlcNAc(b1-3)Gal(b1-4)GlcNAc
Outline: as §1

[21] = target: GlcNAc(a1-4)Gal(b1-4)GlcNAc(b1-3)Gal(b1-4)[Fuc(a1-3)]GlcNAc(b1-3)Gal(b1-4)[Fuc(a1-3)]GlcNAc
Outline: as §1

[22] = target: GlcNAc(a1-6)Gal(b1-4)GlcNAc
Outline: as §1

[23] = target: GlcNAc(b1-2)Gal(b1-3)GalNAc
Outline: as §1

B1: Fm1D (Escherichia coli) (protein)
chain: FSCNVDGGSSIGAGTTSVYVNLDPVIQPGQNLVVDLSQHISCWNDYGGWYDTDHINLVQGSAFAGSLQSYKGSLYWNNVTYPFPLTTNTNVLDIGDKTPMPLPLKLYITPVGAAGGVVIKAGEVIARIHMYKIATLGSGNPRNFTWNIISNNSVVMPTHHHHHH
For B1, the “glycan array binding signal (z-score)” value (Gal6S(b1-4)GlcNAc) was -0.148, the “glycan array binding signal (z-score)” value (Gal6S(b1-4)GlcNAc6S) was -0.137 and the “glycan array binding signal (z-score)” value (GalNAc(a1-3)Gal) was -0.06. For the same binder, the “glycan array binding signal (z-score)” value (GalNAc(a1-3)GalNAc) was -0.144, the “glycan array binding signal (z-score)” value [1] was -0.148 and the “glycan array binding signal (z-score)” value [2] was -0.15. For the same binder, the “glycan array binding signal (z-score)” value (GalNAc(b1-3)Gal) was 0.01, the “glycan array binding signal (z-score)” value [3] was -0.036 and the “glycan array binding signal (z-score)” value [4] was -0.128. The “glycan array binding signal (z-score)” value [5] was 0.053, the “glycan array binding signal (z-score)” value (GalNAc(b1-3)GalNAc) was -0.143 and the “glycan array binding signal (z-score)” value (GalNAc(b1-3)GlcNAc) was -0.144. The “glycan array binding signal (z-score)” value (GalNAc(b1-4)Gal(b1-4)Glc) was -0.135, the “glycan array binding signal (z-score)” value (GalNAc(b1-4)GlcNAc) was -0.149 and the “glycan array binding signal (z-score)” value [6] was -0.145. For the same binder, the “glycan array binding signal (z-score)” value [7] was -0.138, the “glycan array binding signal (z-score)” value [8] was -0.15 and the “glycan array binding signal (z-score)” value (GalNAc(b1-4)GlcNAc6S) was -0.149. For the same binder, the “glycan array binding signal (z-score)” value (GalNAc(b1-6)GalNAc) was -0.146, the “glycan array binding signal (z-score)” value (GalNAc3S(b1-4)GlcNAc) was -0.143 and the “glycan array binding signal (z-score)” value (GalNAc3S(b1-4)GlcNAc3S) was -0.147. For the same binder, the “glycan array binding signal (z-score)” value [9] was -0.146, the “glycan array binding signal (z-score)” value (GalNAc4S6S(b1-4)GlcNAc) was -0.14 and the “glycan array binding signal (z-score)” value (GalNAc6S(b1-4)GlcNAc) was -0.149. For the same binder, the “glycan array binding signal (z-score)” value (Glc(a1-4)Glc) was -0.142, the “glycan array binding signal (z-score)” value [10] was -0.141 and the “glycan array binding signal (z-score)” value (Glc(a1-6)Glc(a1-6)Glc) was -0.146. For the same binder, the “glycan array binding signal (z-score)” value [11] was -0.135, the “glycan array binding signal (z-score)” value (Glc(b1-4)Glc) was -0.145 and the “glycan array binding signal (z-score)” value (Glc(b1-6)Glc) was -0.141. For the same binder, the “glycan array binding signal (z-score)” value (GlcA(b1-3)Gal) was -0.143, the “glycan array binding signal (z-score)” value (GlcA(b1-3)GlcNAc) was -0.14 and the “glycan array binding signal (z-score)” value (GlcA(b1-6)Gal) was -0.114. The “glycan array binding signal (z-score)” value [12] was -0.145, the “glycan array binding signal (z-score)” value [13] was -0.145 and the “glycan array binding signal (z-score)” value [14] was -0.149. For the same binder, the “glycan array binding signal (z-score)” value [15] was -0.147, the “glycan array binding signal (z-score)” value [16] was -0.145 and the “glycan array binding signal (z-score)” value [17] was -0.148. The “glycan array binding signal (z-score)” value [18] was -0.148, the “glycan array binding signal (z-score)” value [19] was -0.148 and the “glycan array binding signal (z-score)” value [20] was -0.149. For the same binder, the “glycan array binding signal (z-score)” value [21] was -0.123, the “glycan array binding signal (z-score)” value [22] was -0.144 and the “glycan array binding signal (z-score)” value [23] was -0.147.

From the supplement of paper PMC8728848
